Measurements published in PMC12069340 (Frontiers in Cellular and Infection Microbiology, 2025).

Experiments:
[1] = test system: influenza virus PR8; type: cell-based, influenza A virus
[2] = test system: influenza virus A/PuertoRico/8/1934 (H1N1); assay: organism not typed; type: cell-based; settings: A549, read-out: IC50 (µM) A549
[3] = test system: influenza virus A/PuertoRico/8/1934 (H1N1); assay: organism not typed; settings: MDCK, read-out: IC50 (µM) MDCK
[4] = test system: influenza virus A/PuertoRico/8/1934 (H1N1)
[5] = test system: influenza virus A/PuertoRico/8/1934

Compound | attachment of influenza virus to A549 cells [1] | IC50 [2] [µM] | IC50 [3] [µM] | SI MDCK [4] | reduction of influenza virus infectivity by direct treatment [5]
O=C(c1ccc(OCCCc2cnc[nH]2)cc1)C1CC1 [Ciproxifan] | did not affect the attachment | 6.3 | 59.4 | >7 | 
CC(COc1ccccc1)NC(C)C(O)c1ccc(O)cc1 (stereo not shown) [Isoxsuprine, Isoxsuprine hydrochloride] | did not affect the attachment | 4.9 | 36.3 | >11 | 
CCCN(CCc1cccs1)[C@H]1CCc2c(O)cccc2C1 [Rotigotine] | did not affect the attachment | 14.7 | 8.1 | 11 | 
Tannic acid |  |  |  |  | substantial decrease in viral infectivity of over one log unit

Where a name gives a salt, the structure may show the parent alone. Read-outs that look alike come from different tables or passages of the source.
